Reference: PubChem BioAssay AID1468 (National Center for Advancing Translational Sciences (NCATS), 2008)
About 1,100 (0.39%) of roughly 280,000 compounds were called active. This list was built around the results that the source calls inconclusive (neither active nor inactive); the mix of calls is not that of the screen. Calls come from the whole dose curve; as a rule, active = well fitted inhibition curve with a large enough effect; inconclusive = small, poorly fitted or top-dose-only effect, or effect the other way; inactive = flat fitted curve, though single readings scatter. No potency is given beside an inconclusive call; the fits are too rough.

molecular target: Microtubule-associated protein tau (Homo sapiens) (UniProt P10636); assay: qHTS for Inhibitors of Tau Fibril Formation, Fluorescence Polarization; details: K18 P301L tau heparin fibrillization, Alexa594 FP, 6 h; series mostly up to 57.7 µM; note: nearly all actives have a fitted effect of over 55% in size
Chain of UniProt P10636 (P10636 whole entry, looked up): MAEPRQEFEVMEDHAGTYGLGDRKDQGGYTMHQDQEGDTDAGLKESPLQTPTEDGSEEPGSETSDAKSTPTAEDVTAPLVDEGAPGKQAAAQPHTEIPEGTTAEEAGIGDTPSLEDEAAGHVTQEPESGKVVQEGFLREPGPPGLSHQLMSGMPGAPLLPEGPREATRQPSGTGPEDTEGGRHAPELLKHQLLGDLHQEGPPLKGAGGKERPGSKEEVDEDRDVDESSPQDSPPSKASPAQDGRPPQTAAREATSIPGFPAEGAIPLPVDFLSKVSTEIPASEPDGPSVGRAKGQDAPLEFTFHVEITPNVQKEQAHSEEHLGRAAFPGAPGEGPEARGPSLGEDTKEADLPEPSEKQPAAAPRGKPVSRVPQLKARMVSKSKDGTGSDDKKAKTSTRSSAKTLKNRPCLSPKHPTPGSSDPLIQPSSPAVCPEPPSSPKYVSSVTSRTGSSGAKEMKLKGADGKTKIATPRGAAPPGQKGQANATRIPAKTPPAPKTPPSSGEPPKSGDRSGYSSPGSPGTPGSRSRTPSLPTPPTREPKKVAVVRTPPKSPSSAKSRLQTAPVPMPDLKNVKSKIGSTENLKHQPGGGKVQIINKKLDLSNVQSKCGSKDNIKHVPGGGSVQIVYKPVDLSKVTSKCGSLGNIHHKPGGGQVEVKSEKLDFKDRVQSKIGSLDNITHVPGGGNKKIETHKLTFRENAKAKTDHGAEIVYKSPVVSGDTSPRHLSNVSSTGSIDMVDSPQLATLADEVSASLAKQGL
Procedure, shortened: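 Quantitative HTS format: compounds meet 15 uM recombinant K18 P301L tau and Alexa 594-tau tracer in 100 mM sodium acetate pH 7; 20 uM heparin triggers fibrillization at 37 C over 6 hr; FP gives the signal.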
Potency is the fitted concentration of half-maximal effect; tags give direction and shape of the fitted curve.

Compound	Potency
Cc1cc(NC(=O)c2c(F)cccc2F)n(-c2nc3ccccc3[nH]2)n1	inconclusive [inhibitor, partial curve]
COCCn1c(C)cc(O)c(C(c2ccccc2F)N2CCN(c3ccccc3)CC2)c1=O (stereo unspecified)	inconclusive [inhibitor, single point]
CCCC(=O)Nc1nc2ccc(C(=O)OCC)cc2s1	inactive
Cc1nc2c(c(C)c1CCC(=O)Nc1ccc(F)cc1)c(=O)n(C)c(=O)n2C	inconclusive [inhibitor, single point]
COc1cccc(OCc2cc(/C=N/NC(=O)c3nc(Cl)c(Cl)c(N)c3Cl)ccc2OC)c1	inconclusive [inhibitor, single point]
COC(=O)NC(/C=C/c1ccco1)[C@@]1(C(=O)OC)CCCC1=O (stereo partly specified)	inconclusive [inhibitor, partial curve]
CCc1ccc(NC(=O)Cn2c(=O)nc(-c3ccccc3F)c3cc(Cl)ccc32)cc1	inconclusive [inhibitor, single point]
Cc1ccc(-c2nc(CSCC(=O)N3CCOCC3)c(C)o2)cc1	inactive
O=C(Nc1ccc(Oc2ccccc2)cc1)c1ccc(F)c(S(=O)(=O)N2CCN(c3ccccc3F)CC2)c1	inconclusive [inhibitor, partial curve]
O=[N+]([O-])c1ccc(-c2nc(-c3cccs3)c(-c3cccs3)[nH]2)cc1	inconclusive [inhibitor, single point]
Cc1cc(C)c2nc(N3CCCC(C(=O)N4CCN(c5ncccn5)CC4)C3)sc2c1 (stereo unspecified)	inconclusive [activator, single point]
CC(C)CCNC(=O)C1CC(c2ccccc2C(F)(F)F)=NO1 (stereo unspecified)	inactive
CCc1ccc2ncc(S(=O)(=O)c3ccc(C)c(C)c3)c(N3CCCC3)c2c1	inactive
COc1cccc(NC(=O)/C(C#N)=C/c2ccc(-c3ccc(C)cc3)o2)c1	inconclusive [inhibitor, partial curve]
Cc1ccc(C)c(N2CCN(C(=O)c3cn(C)c4ccc(S(=O)(=O)N(C)C)cc4c3=O)CC2)c1	inconclusive [activator, single point]
COc1cccc(C(=O)COC(=O)c2cc(-c3cccs3)nc3ccccc23)c1	inconclusive [inhibitor, partial curve]
Cc1cc(NS(=O)(=O)c2cn(C)c(C)n2)ccc1Br	inactive
C=CCOC(=O)C1=C(C)NC(SCC(=O)Nc2ccc(C)c(Cl)c2)=C(C#N)C1c1ccco1 (stereo unspecified)	inconclusive [inhibitor, partial curve]
Clc1ccc(Sc2cc(N3CCOCC3)nc(-c3ccccc3)n2)cc1	inconclusive [inhibitor, single point]
COC(=O)N1CC=CC1(C)C(=O)NCc1ccc(C)o1 (stereo unspecified)	inconclusive [inhibitor, partial curve]
Cc1nc(-c2ccc(S(=O)(=O)NCc3ccc(F)cc3)cc2)co1	inactive
Cc1ccc(C)c(CN2C(=O)c3ccccc3S(=O)(=O)c3ccc(C(=O)NCCc4ccc(Cl)cc4)cc32)c1	inconclusive [inhibitor, partial curve]

Compound	Potency
COc1cc(NC(=O)Nc2ccc(Cl)c(Cl)c2)c(C(=O)O)cc1OC	inconclusive [activator, partial curve]
Cc1[nH]c2ccccc2c1C(=O)CSc1nc2ccccc2c(=O)n1CCCN1CCOCC1	inconclusive [inhibitor, partial curve]
C/C(=N\Nc1nc2ccccc2[nH]1)c1ccc(N2CCOCC2)cc1	inconclusive [activator, full curve, poor fit]
Cc1c(Cl)cccc1NC(=O)c1ccc(OCC(=O)NCc2ccccc2)cc1	inactive
CCOC(=O)c1ccc(NC(=O)CCC(=O)N2CCSc3ccccc32)cc1	inactive
CCOC(=O)c1cc(NC(=O)Nc2nc3ccccc3s2)c(C)nc1C	inconclusive [inhibitor, partial curve, poor fit]
CCOC(=O)CSc1nc(C)c2cc(OC)ccc2n1	inactive
COCCNC(=O)c1c(N)sc2c1CCCC2	inconclusive [inhibitor, partial curve]
CCOC(=O)CS(=O)(=O)c1nc(-c2ccccc2)cc(C(F)(F)F)n1	inconclusive [inhibitor, partial curve, poor fit]
COC(=O)c1ccc(Oc2nc3c(c(=O)n(C)c(=O)n3C)n2Cc2ccc(Cl)c(Cl)c2)cc1	inactive
c1ccc(-c2cn3c4c(sc3n2)CCCC4)cc1	inactive
CC1CC(C)CN(C(=S)SCc2nc(N)nc(Nc3ccccc3)n2)C1 (stereo unspecified)	inconclusive [inhibitor, partial curve]
Nc1nonc1-c1nc2ccccc2n1CC(=O)Nc1cccc(Cl)c1Cl	inconclusive [inhibitor, partial curve, poor fit]
CCc1cccc(NC(=O)Cn2ccn3nc(-c4ccc(OC)c(OC)c4)cc3c2=O)c1	inconclusive [inhibitor, single point]
O=C(Nc1ccc(F)cc1)c1ccc2c(c1)NC(=O)c1ccccc1S2	inconclusive [inhibitor, partial curve]
COC(=O)[C@@]1(Cc2ccc(OC)cc2)[C@@H]2C(=CC(=O)[C@H]2CC(=O)C(=O)N2CCCC2)CN1C(=O)c1ccccc1	inactive
COc1ccc(NC(=O)c2oc3ccccc3c2NC(=O)C23CC4CC(CC(C4)C2)C3)cc1	inconclusive [inhibitor, full curve]
CC(=O)Nc1ccc(N(C(=O)CNC(=O)c2ccco2)C(C(=O)NCc2ccco2)c2ccccc2)cc1 (stereo unspecified)	inactive
CCOC(=O)c1ccccc1NC(=O)Cn1c(=O)n(-c2ccc(CC)cc2)c(=O)c2c(C)c(C(=O)N(C)C)sc21	inactive
Oc1ccc(Br)cc1/C=N/N1CCN(Cc2ccccc2)CC1	inactive
CN(C)S(=O)(=O)c1cc(NC(=O)COC(=O)Cc2ccc(Cl)cc2Cl)ccc1Cl	inconclusive [inhibitor, single point]
O=C(Nc1ccc(F)c(Cl)c1)C1CCN(S(=O)(=O)c2ccc3c(c2)CCCN3C(=O)C2CCC2)CC1	inconclusive [inhibitor, partial curve]

Compound	Potency
COc1ccc(Nc2ncc(C(=O)N3CCN(c4ccccc4OC)CC3)c3ccccc23)cc1	inconclusive [activator, partial curve]
CC1(OC(=O)C2CCCC2)C(=O)C=C2C=C(c3ccsc3)N(c3ccccc3)C=C2C1=O (stereo unspecified)	inconclusive [inhibitor, single point]
Cn1c(SCc2ccccc2Cl)nc(=O)c2c1NC(=O)CC2c1cc(F)ccc1F (stereo unspecified)	inactive
CCOc1ccc(NC(=O)Nc2c[nH]c(=O)[nH]c2=O)cc1	inactive
CCOC(=O)Cc1csc(NC(=O)c2sc3nc4c(C)cc(C)cc4cc3c2N)n1	inactive
CCOc1cc(S(=O)(=O)N2CCN(c3ccc(F)cc3)CC2)c(OCC)cc1-n1cnnn1	inactive
COc1ccc(NC(=O)CSc2ncc3c(n2)-c2ccccc2N(C)S3(=O)=O)cc1Cl	inconclusive [inhibitor, partial curve]
CC1(C)CC(=O)c2cc(O)ccc2O1	inconclusive [inhibitor, single point]
COC(=O)c1c(NC(=O)c2ccccc2)sc(Cc2ccccc2)c1C	inconclusive [inhibitor, partial curve]
O=C(Cn1c(=O)ccc2cc(S(=O)(=O)N3CCCC3)ccc21)Nc1ccc(Cl)cc1	inconclusive [inhibitor, single point]
COc1ccc(CNC(=O)CSc2ncc3c(n2)-c2cc(Cl)ccc2N(C)S3(=O)=O)cc1	inconclusive [inhibitor, partial curve]
CCOC(=O)C1CCN(CC(O)COc2ccc(C(C)(C)CC)cc2)CC1 (stereo unspecified)	inactive
Cc1cc2n(n1)C(c1c[nH]c3ccccc13)Nc1ccccc1-2 (stereo unspecified)	active: 28.2 µM
O=C(Cn1c(=O)n(-c2ccccc2)c(=O)c2ccc(C(=O)NCc3ccc4c(c3)OCO4)cc21)Nc1ccc(F)c(Cl)c1	active: 25.1 µM
Cc1noc(NS(=O)(=O)c2ccc(NC(=O)Nc3ccc(Cl)c(Cl)c3)cc2)c1C	inconclusive [inhibitor, single point]
Clc1cccc(-n2ncc3c(Nc4ccc5c(c4)OCCO5)ncnc32)c1	inconclusive [activator, single point]
CCOc1cccc(OCCOc2ccccc2[N+](=O)[O-])c1	inconclusive [inhibitor, single point]
Cc1nn2c(-c3ccco3)ccnc2c1-c1ccc(Cl)cc1	inconclusive [inhibitor, single point]
Cc1ccc(C(=O)Nc2ccc3oc(-c4cc(Br)ccc4Cl)nc3c2)cc1	inconclusive [inhibitor, full curve, poor fit]
CCC(=O)N1CCCc2cc(S(=O)(=O)N3CCC(C(=O)Nc4cccc(Cl)c4)CC3)ccc21	inactive
COc1cc(OC)c(N(C)C(=O)CSc2c3c(nc4ccc(Cl)cc24)CCCC3)cc1Cl	inactive
CCc1ccccc1NC(=O)Nc1cc(C(=O)NCc2ccccc2OC)ccc1N1CCCC1	inactive
